Binding data for five molecules are collected here from article PMC2587708.

By UniProt entry, the sequences of proteins in these tests, tags left out. Where a name states a change or a piece, a line headed by the entry shows the natural chain unless it says otherwise.
UniProt P42003: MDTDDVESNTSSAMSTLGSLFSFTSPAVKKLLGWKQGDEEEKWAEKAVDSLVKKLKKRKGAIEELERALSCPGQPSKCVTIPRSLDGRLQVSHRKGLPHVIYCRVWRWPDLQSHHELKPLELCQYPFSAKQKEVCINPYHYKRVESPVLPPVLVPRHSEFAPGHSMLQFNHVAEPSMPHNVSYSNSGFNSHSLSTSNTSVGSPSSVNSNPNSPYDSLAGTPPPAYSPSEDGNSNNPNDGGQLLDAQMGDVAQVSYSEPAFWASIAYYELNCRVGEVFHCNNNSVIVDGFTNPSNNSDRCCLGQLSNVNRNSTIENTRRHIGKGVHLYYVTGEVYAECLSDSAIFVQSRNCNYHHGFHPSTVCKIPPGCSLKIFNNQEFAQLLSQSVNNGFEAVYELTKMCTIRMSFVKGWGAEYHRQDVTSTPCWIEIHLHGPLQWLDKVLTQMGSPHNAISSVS

No constants are given. Whether binding was seen depends on the method and setting. Binding seen in cells or lysates may run through a third protein. Some entries that bind do so weakly or less than the wild type. Tags and fused reporters may be left off the sequences shown.

The target in assay [1] is T1, dTcf, Myc-tagged, full length (Drosophila) (UniProt P91943).
T1 sequence: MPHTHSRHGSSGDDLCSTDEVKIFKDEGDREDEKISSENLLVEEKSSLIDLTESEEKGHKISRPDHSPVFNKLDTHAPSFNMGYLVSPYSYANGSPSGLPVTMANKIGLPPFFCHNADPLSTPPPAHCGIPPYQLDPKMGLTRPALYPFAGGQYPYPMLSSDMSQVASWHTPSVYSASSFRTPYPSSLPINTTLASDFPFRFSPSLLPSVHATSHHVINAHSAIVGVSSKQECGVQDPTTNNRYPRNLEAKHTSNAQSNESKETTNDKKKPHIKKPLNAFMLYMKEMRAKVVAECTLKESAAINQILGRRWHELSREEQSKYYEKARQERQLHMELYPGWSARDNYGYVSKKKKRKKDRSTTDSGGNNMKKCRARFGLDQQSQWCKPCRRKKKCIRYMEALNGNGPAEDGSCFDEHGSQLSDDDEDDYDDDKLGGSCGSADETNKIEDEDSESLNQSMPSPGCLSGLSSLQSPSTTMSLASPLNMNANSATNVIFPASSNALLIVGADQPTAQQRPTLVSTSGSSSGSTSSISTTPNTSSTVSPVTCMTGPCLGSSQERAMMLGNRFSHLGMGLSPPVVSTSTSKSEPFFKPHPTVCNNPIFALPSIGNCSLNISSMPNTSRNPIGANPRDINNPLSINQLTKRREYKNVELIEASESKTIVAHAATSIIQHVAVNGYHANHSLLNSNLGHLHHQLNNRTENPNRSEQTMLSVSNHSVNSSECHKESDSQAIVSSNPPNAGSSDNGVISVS
Description: co-IP; HEK293 cells co-transfected with two tagged Drosophila constructs; lysates IP'd with anti-Myc, anti-T7 or anti-HA (IgG as control), immunoblot for the tags. On the technique in general: A western blot detects proteins with antibodies after separation by electrophoresis.

Assay [2] concerns the target T2, Armadillo (Arm; β-catenin), HA-tagged (Drosophila) (UniProt P18824).
T2 sequence: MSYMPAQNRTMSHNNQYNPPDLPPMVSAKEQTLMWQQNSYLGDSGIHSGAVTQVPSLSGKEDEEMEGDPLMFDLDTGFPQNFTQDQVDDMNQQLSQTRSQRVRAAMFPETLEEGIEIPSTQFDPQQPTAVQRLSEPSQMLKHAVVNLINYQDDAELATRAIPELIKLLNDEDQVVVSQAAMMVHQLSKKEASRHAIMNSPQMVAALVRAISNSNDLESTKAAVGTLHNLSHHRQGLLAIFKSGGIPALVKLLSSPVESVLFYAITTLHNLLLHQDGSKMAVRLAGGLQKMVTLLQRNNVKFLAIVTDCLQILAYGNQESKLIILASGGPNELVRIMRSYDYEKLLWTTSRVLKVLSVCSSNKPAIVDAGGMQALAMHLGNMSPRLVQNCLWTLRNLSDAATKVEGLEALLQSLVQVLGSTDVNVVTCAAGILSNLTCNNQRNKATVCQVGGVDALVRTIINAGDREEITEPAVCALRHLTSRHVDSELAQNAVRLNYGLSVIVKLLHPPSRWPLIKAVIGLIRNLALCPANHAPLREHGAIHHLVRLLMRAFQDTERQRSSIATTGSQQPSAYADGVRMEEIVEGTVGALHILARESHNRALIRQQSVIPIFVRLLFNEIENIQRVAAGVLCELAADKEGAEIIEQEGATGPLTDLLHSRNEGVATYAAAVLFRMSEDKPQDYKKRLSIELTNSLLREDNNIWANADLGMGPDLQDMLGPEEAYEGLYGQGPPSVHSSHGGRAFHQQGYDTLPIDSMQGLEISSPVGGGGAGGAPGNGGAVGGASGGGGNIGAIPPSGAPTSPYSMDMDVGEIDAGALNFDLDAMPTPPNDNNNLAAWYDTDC
Put plainly: co-IP; lysates of transfected cells expressing HA-Arm, Myc-dTcf and T7-Mad; IP'd with anti-T7 or with anti-HA, immunoblot for the tags.

The target in assay [3] is T2, Armadillo (Arm; β-catenin), HA-tagged (Drosophila). Description: co-IP; HEK293 cells co-transfected with two tagged Drosophila constructs; lysates IP'd with anti-Myc, anti-T7 or anti-HA (IgG as control), immunoblot for the tags.
Assay [4] addresses T3, dTcfΔC (a.a. 1-394), Myc-tagged (Drosophila) (UniProt P91943).
T3 sequence: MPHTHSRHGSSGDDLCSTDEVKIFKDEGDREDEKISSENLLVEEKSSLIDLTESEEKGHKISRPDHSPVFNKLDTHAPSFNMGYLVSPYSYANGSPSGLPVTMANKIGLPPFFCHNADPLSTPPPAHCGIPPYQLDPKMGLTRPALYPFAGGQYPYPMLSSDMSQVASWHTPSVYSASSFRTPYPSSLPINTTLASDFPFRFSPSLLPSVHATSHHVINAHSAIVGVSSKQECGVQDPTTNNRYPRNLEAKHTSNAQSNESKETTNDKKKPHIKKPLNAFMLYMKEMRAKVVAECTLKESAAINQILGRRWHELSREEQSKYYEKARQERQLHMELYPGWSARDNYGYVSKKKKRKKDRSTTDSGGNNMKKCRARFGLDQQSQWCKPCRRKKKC
The assay is described as above.

The target of assay [5] is T4, dTcfΔC1 (a.a. 1-522), Myc-tagged (Drosophila) (UniProt P91943).
T4 sequence: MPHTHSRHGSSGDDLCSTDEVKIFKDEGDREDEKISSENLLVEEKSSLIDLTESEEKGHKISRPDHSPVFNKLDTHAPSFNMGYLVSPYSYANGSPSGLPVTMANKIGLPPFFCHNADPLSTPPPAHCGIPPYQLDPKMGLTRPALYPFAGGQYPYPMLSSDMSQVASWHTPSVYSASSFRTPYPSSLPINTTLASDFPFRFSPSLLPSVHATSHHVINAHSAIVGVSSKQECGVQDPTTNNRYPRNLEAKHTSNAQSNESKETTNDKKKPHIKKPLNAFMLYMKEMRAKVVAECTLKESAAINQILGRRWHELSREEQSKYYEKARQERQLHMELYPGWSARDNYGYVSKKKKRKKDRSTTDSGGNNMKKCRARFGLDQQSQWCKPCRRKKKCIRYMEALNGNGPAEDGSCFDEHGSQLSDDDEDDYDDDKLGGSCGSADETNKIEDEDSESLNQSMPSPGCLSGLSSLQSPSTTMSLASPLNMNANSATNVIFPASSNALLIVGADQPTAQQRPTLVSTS
Described as above.

For assay [6], the target named is T5, dTcfΔHMG (a.a. 1-244), Myc-tagged (Drosophila) (UniProt P91943).
T5 sequence: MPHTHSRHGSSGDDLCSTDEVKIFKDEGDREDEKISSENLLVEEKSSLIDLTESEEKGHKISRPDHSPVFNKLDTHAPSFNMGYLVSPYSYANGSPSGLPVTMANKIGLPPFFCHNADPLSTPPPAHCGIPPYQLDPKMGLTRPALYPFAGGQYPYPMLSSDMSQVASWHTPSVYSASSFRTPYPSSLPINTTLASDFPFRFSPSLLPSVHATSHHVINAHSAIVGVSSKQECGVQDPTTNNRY
The description is as above.

Assay [7] concerns the target T1, dTcf, Myc-tagged, full length (Drosophila). Put plainly: co-IP; HEK293 cells triply transfected with HA-Arm, Myc-dTcf and increasing amounts of T7-Mad; lysates IP'd with anti-Myc, immunoblot with anti-HA, anti-Myc and anti-T7.
Assay [8] shares this target. Put plainly: co-IP; HEK293 cells triply transfected with T7-Mad, Myc-dTcf and increasing amounts of HA-Arm; lysates IP'd with anti-Myc, immunoblot with anti-HA, anti-Myc and anti-T7.
For assay [9], the target named is Mothers against Dpp (Mad), T7-tagged, full length (Drosophila) (UniProt P42003). Description: co-IP; lysates of transfected cells expressing HA-Arm, Myc-dTcf and T7-Mad; IP'd with anti-T7 or with anti-HA, immunoblot for the tags.

For “Mad linker (a.a. 157-256), T7-tagged (from UniProt P42003 157-256) (domain or fragment)”, the binding result in assay [1] is listed as “no binding”.
Same read-out and setting: as for “MadΔMH1 (a.a. 157-455), T7-tagged (from UniProt P42003 157-455) (domain or fragment)”, the entry is “binds”; as for “MadΔMH2 (a.a. 1-256), T7-tagged (from UniProt P42003 1-256) (domain or fragment)”, “no binding”.
Take “Mothers against Dpp (Mad), T7-tagged, full length (from UniProt P42003 1-455)”: the binding entry in assay [2] was “no binding”; in [3], “no binding”; in assay [1], “binds”; in assay [4] it was “binds”; in [5] it was “binds”; in assay [6], “no binding”. The binding result in [7] and in assay [8] was “binds” throughout.

B1: Armadillo (Arm; β-catenin), HA-tagged (protein, UniProt P18824 1-843)
chain: T2 sequence
Regarding B1, the binding entry was “no binding” in assay [9], “binds” in assay [7] and “binds” in assay [8].
